Source: paper PMC12635257
Positions count from the first letter of the chain named. These are yes or no findings as the source states them, for the method shown. In cells and extracts the contact can be indirect. Some results given as binding are weak or reduced against the parent protein; the word gives no strength. For part of these data: Sequences can lack the tags named with a protein. Blank lines part the entries; values can stand above or below the molecule they belong to.

Chains of the proteins cited; added tags and fusions are not shown. Lines headed by an entry give the natural chain unless they say otherwise; changes in a name come on top. A line that says so, or that is headed by a name, gives the form on record, which may keep a tag or linker. Residues count along the entry.
UniProt Q16637: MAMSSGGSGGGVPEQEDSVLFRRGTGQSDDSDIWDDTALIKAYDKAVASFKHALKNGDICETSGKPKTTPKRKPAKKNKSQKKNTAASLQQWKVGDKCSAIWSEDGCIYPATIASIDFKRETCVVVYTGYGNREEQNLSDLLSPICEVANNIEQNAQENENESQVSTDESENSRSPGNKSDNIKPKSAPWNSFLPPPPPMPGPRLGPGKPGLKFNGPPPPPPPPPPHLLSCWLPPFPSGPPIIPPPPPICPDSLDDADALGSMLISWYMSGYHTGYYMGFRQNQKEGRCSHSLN
GST-tagged Tudor domain of SMN (wild type): residues 91-151 of Q16637
GST-tagged Tudor domain of SMN, methylarginine binding deficient E134K mutant (Q16637, form named): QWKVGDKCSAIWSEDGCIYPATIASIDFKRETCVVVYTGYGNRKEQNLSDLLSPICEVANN
UniProt Q9H7E2, residues 555-615: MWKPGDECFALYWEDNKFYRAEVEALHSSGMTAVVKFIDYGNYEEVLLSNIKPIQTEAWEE
UniProt Q86U44: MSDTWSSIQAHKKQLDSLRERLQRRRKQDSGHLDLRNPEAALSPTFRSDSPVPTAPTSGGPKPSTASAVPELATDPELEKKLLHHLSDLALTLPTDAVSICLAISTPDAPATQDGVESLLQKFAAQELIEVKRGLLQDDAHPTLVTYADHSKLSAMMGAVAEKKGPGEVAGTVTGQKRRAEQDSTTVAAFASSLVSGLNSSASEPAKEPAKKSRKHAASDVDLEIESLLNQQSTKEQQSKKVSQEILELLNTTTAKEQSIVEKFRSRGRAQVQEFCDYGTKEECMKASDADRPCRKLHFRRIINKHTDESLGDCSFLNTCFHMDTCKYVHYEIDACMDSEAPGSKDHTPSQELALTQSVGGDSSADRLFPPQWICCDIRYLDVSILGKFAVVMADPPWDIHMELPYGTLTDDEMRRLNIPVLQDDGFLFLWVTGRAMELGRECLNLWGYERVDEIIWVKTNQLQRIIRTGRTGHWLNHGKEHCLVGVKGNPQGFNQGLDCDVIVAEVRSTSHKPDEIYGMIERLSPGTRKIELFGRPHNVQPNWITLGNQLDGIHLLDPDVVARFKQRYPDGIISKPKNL

Tests used:
[1] = molecular target: GST-tagged Tudor domain of SMN (wild type) (human) (UniProt Q16637); test: pull-down; purified GST-tagged Tudor domains incubated with HeLa cell lysates (endogenous proteins) overnight at 4 °C, Glutathione Sepharose beads 2 h; 20 mM Tris-HCl pH 7.4, 150 mM NaCl, 0.1% NP-40; western blot; also with lysates of siControl or siPRMT1 cells and of cells treated with MS023, EPZ015666 or both; only the target purified
[2] = molecular target: GST-tagged Tudor domain of SMN, methylarginine binding deficient E134K mutant (human) (UniProt Q16637); test: as above
[3] = molecular target: GST-tagged Tudor domain of TDRD3 (wild type) (UniProt Q9H7E2); test: as above
[4] = molecular target: T1, Flag-tagged C-terminus truncated (1-400) METTL14 (human) (UniProt Q9HCE5); test: co-IP; HeLa cells transfected with Flag-tagged METTL14 (WT, RK, 1-400), METTL3 or WTAP; endogenous SMN detected by western blot; co-IP buffer 50 mM Tris-HCl pH 7.4, 150 mM NaCl, 15 mM MgCl2, 5 mM EDTA, 0.1% NP-40; also in siPRMT1 or siPRMT5 cells and in cells treated with MS023, EPZ015666 or both
T1 sequence: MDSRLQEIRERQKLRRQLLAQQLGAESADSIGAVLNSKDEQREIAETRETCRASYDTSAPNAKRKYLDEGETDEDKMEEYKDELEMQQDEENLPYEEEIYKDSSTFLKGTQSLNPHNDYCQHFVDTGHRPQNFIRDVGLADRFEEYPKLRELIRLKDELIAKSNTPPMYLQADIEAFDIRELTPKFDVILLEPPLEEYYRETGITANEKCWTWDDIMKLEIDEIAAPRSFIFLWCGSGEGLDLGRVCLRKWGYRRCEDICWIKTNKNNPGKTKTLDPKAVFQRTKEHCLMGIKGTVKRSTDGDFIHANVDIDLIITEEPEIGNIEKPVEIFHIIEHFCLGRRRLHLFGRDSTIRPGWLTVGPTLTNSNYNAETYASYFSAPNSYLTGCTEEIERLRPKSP

[5] = molecular target: T2, METTL14 (endogenous) (human (endogenous in HeLa)) (UniProt Q9HCE5); test: co-IP; endogenous proteins; IP with IgG control, METTL14 or SMN antibodies, western blot for the other protein; co-IP buffer 50 mM Tris-HCl pH 7.4, 150 mM NaCl, 15 mM MgCl2, 5 mM EDTA, 0.1% NP-40
T2 sequence: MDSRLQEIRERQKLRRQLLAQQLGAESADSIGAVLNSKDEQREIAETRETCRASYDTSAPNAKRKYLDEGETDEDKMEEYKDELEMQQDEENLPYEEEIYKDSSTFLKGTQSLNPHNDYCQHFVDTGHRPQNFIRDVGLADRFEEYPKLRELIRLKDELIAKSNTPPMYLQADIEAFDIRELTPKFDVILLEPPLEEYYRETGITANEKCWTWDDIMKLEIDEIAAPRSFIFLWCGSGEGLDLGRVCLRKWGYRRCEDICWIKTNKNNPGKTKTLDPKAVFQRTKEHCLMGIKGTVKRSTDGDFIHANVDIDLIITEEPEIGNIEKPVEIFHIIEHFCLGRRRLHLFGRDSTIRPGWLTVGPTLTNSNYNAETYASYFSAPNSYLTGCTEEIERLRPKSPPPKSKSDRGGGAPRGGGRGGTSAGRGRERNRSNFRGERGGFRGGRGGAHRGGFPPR

[6] = molecular target: GST-tagged Tudor domain of SMN (wild type) (human) (UniProt Q16637); test: pull-down; recombinant GST-SMN Tudor domain incubated with lysates of HeLa cells transfected with Flag-tagged METTL14 (FL, 1-400, 5RK, 8RK, 10RK, 13RK); 20 mM Tris-HCl pH 7.4, 150 mM NaCl, 0.1% NP-40, 4 °C; only the target purified
[7] = molecular target: GST-tagged Tudor domain of SMN (wild type) (human) (UniProt Q16637); test: pull-down; Appendix Fig. S1C,D (legend not shown); SMA-derived mutants of the SMN Tudor domain, listed as pGEX-4T-1 (GST) constructs in the reagents table, against METTL14; only the target purified
[8] = molecular target: GST-tagged Tudor domain of SMN (wild type) (human) (UniProt Q16637); test: pull-down; GST-SMN Tudor domain with cell lysates treated with RNase A (Appendix Fig. S1A); only the target purified
[9] = molecular target: Flag-tagged SMN, wild type (human) (UniProt Q16637); test: co-IP; Flag-tagged WT or E134K SMN; METTL14 detected by western blot
[10] = molecular target: Flag-tagged SMN, methylarginine binding deficient mutant (E134K) (human) (UniProt Q16637); test: as above
[11] = molecular target: SMN (endogenous) (human (endogenous in HeLa)) (UniProt Q16637); test: co-IP; endogenous proteins; IP with IgG control, METTL14 or SMN antibodies, western blot for the other protein; co-IP buffer 50 mM Tris-HCl pH 7.4, 150 mM NaCl, 15 mM MgCl2, 5 mM EDTA, 0.1% NP-40

B1: Flag-tagged METTL14 13RK (R408/414/418/425/427/429/431/435/438/442/445/450/456K) (protein, UniProt Q9HCE5 1-456)
chain: MDSRLQEIRERQKLRRQLLAQQLGAESADSIGAVLNSKDEQREIAETRETCRASYDTSAPNAKRKYLDEGETDEDKMEEYKDELEMQQDEENLPYEEEIYKDSSTFLKGTQSLNPHNDYCQHFVDTGHRPQNFIRDVGLADRFEEYPKLRELIRLKDELIAKSNTPPMYLQADIEAFDIRELTPKFDVILLEPPLEEYYRETGITANEKCWTWDDIMKLEIDEIAAPRSFIFLWCGSGEGLDLGRVCLRKWGYRRCEDICWIKTNKNNPGKTKTLDPKAVFQRTKEHCLMGIKGTVKRSTDGDFIHANVDIDLIITEEPEIGNIEKPVEIFHIIEHFCLGRRRLHLFGRDSTIRPGWLTVGPTLTNSNYNAETYASYFSAPNSYLTGCTEEIERLRPKSPPPKSKSDKGGGAPKGGGKGGTSAGKGKEKNKSNFKGEKGGFKGGKGGAHKGGFPPK
binding [6]: no binding

B2: Flag-tagged C-terminus truncated (1-400) METTL14 (domain or fragment, UniProt Q9HCE5 1-400)
chain: T1 sequence
binding [6]: no binding

B4: Flag-tagged METTL14 8RK (R429/431/435/438/442/445/450/456K) (protein, UniProt Q9HCE5 1-456)
chain: B1 chain with K408R, K414R, K418R, K425R, K427R
binding [6]: no binding

B5: Flag-tagged METTL14 5RK (R438/442/445/450/456K) (protein, UniProt Q9HCE5 1-456)
chain: T2 sequence with R438K, R442K, R445K, R450K, R456K
binding [6]: no binding

B6: Flag-tagged METTL14 10RK (R425/427/429/431/435/438/442/445/450/456K) (protein, UniProt Q9HCE5 1-456)
chain: B1 chain with K408R, K414R, K418R
binding [6]: no binding

Next, values leading:

binding [1]: binds
binding [2]: no binding
binding [3]: no binding
Molecule: METTL3 (endogenous) (from UniProt Q86U44 1-580)

binding [4]: no binding
binding [5]: binds
Molecule: SMN (endogenous) (from UniProt Q16637 1-294)

binding [7]: binds
binding [8]: binds
binding [1]: binds
binding [2]: no binding
binding [3]: no binding
binding [9]: binds
binding [10]: no binding
binding [11]: binds
B3: METTL14 (endogenous) (protein, UniProt Q9HCE5 1-456)
chain: T2 sequence
